{
  "source": "paper PMC9911399",
  "about": "“Two distinct binding modes provide the RNA-binding protein RbFox with extraordinary sequence specificity”",
  "binders": {"B1": {"name": "AUAUAGG (DNA:RNA)", "RNA": "GGGAGACCGGAAUUCAGAUUGUCCAUAUAGGUUAAAUCCCGUCGUAGCCACCA", "DNA 1": "CAATCTGAATTCCGGTCTCCC", "DNA 2": "TGGTGGCTACGACGGGATT"}, "B2": {"name": "UUGGUUG (DNA:RNA)", "RNA": "B1 RNA with A25U, A27G, U28G, A29U, G30U", "DNA 1": "CAATCTGAATTCCGGTCTCCC", "DNA 2": "TGGTGGCTACGACGGGATT"}, "B3": {"name": "CACCCGU (DNA:RNA)", "RNA": "B1 RNA with A25C, U26A, A27C, U28C, A29C, G31U", "DNA 1": "CAATCTGAATTCCGGTCTCCC", "DNA 2": "TGGTGGCTACGACGGGATT"}, "B4": {"name": "AUCGCAG (DNA:RNA)", "RNA": "B1 RNA with A27C, U28G, A29C, G30A", "DNA 1": "CAATCTGAATTCCGGTCTCCC", "DNA 2": "TGGTGGCTACGACGGGATT"}, "B5": {"name": "AGAAUUU (DNA:RNA)", "RNA": "B1 RNA with U26G, U28A, A29U, G30U, G31U", "DNA 1": "CAATCTGAATTCCGGTCTCCC", "DNA 2": "TGGTGGCTACGACGGGATT"}, "B6": {"name": "ACUGCAA (DNA:RNA)", "RNA": "B1 RNA with U26C, A27U, U28G, A29C, G30A, G31A", "DNA 1": "CAATCTGAATTCCGGTCTCCC", "DNA 2": "TGGTGGCTACGACGGGATT"}, "B7": {"name": "CCGACGG (DNA:RNA)", "RNA": "B1 RNA with A25C, U26C, A27G, U28A, A29C", "DNA 1": "CAATCTGAATTCCGGTCTCCC", "DNA 2": "TGGTGGCTACGACGGGATT"}, "B8": {"name": "CCAGUGU (DNA:RNA)", "RNA": "B1 RNA with A25C, U26C, U28G, A29U, G31U", "DNA 1": "CAATCTGAATTCCGGTCTCCC", "DNA 2": "TGGTGGCTACGACGGGATT"}, "B9": {"name": "GGGUUUC (DNA:RNA)", "RNA": "B1 RNA with A25G, U26G, A27G, A29U, G30U, G31C", "DNA 1": "CAATCTGAATTCCGGTCTCCC", "DNA 2": "TGGTGGCTACGACGGGATT"}, "B10": {"name": "CGCGCUA (DNA:RNA)", "RNA": "GGGAGACCGGAAUUCAGAUUGUCCCGCGCUAUUAAAUCCCGUCGUAGCCACCA", "DNA 1": "CAATCTGAATTCCGGTCTCCC", "DNA 2": "TGGTGGCTACGACGGGATT"}, "B11": {"name": "UGCCUUA (DNA:RNA)", "RNA": "B10 RNA with C25U, G28C, C29U", "DNA 1": "CAATCTGAATTCCGGTCTCCC", "DNA 2": "TGGTGGCTACGACGGGATT"}, "B12": {"name": "UUAAAUA (DNA:RNA)", "RNA": "B1 RNA with A25U, U28A, G30U, G31A", "DNA 1": "CAATCTGAATTCCGGTCTCCC", "DNA 2": "TGGTGGCTACGACGGGATT"}, "B13": {"name": "GAACAGA (DNA:RNA)", "RNA": "B1 RNA with A25G, U26A, U28C, G31A", "DNA 1": "CAATCTGAATTCCGGTCTCCC", "DNA 2": "TGGTGGCTACGACGGGATT"}, "B14": {"name": "CGCUGUG (DNA:RNA)", "RNA": "B10 RNA with G28U, C29G, A31G", "DNA 1": "CAATCTGAATTCCGGTCTCCC", "DNA 2": "TGGTGGCTACGACGGGATT"}, "B15": {"name": "UUCGACC (DNA:RNA)", "RNA": "B1 RNA with A25U, A27C, U28G, G30C, G31C", "DNA 1": "CAATCTGAATTCCGGTCTCCC", "DNA 2": "TGGTGGCTACGACGGGATT"}, "B16": {"name": "GCCUGCU (DNA:RNA)", "RNA": "B1 RNA with A25G, U26C, A27C, A29G, G30C, G31U", "DNA 1": "CAATCTGAATTCCGGTCTCCC", "DNA 2": "TGGTGGCTACGACGGGATT"}, "B17": {"name": "UUCUUCC (DNA:RNA)", "RNA": "B1 RNA with A25U, A27C, A29U, G30C, G31C", "DNA 1": "CAATCTGAATTCCGGTCTCCC", "DNA 2": "TGGTGGCTACGACGGGATT"}, "B18": {"name": "UUGCUAC (DNA:RNA)", "RNA": "B1 RNA with A25U, A27G, U28C, A29U, G30A, G31C", "DNA 1": "CAATCTGAATTCCGGTCTCCC", "DNA 2": "TGGTGGCTACGACGGGATT"}, "B19": {"name": "UAUCCCU (DNA:RNA)", "RNA": "B10 RNA with C25U, G26A, C27U, G28C, U30C, A31U", "DNA 1": "CAATCTGAATTCCGGTCTCCC", "DNA 2": "TGGTGGCTACGACGGGATT"}, "B20": {"name": "AAGAUCC (DNA:RNA)", "RNA": "B1 RNA with U26A, A27G, U28A, A29U, G30C, G31C", "DNA 1": "CAATCTGAATTCCGGTCTCCC", "DNA 2": "TGGTGGCTACGACGGGATT"}, "B21": {"name": "GUACGAG (DNA:RNA)", "RNA": "B1 RNA with A25G, U28C, A29G, G30A", "DNA 1": "CAATCTGAATTCCGGTCTCCC", "DNA 2": "TGGTGGCTACGACGGGATT"}, "B22": {"name": "GACUAAU (DNA:RNA)", "RNA": "B1 RNA with A25G, U26A, A27C, G30A, G31U", "DNA 1": "CAATCTGAATTCCGGTCTCCC", "DNA 2": "TGGTGGCTACGACGGGATT"}, "B23": {"name": "CUAGAUG (DNA:RNA)", "RNA": "B1 RNA with A25C, U28G, G30U", "DNA 1": "CAATCTGAATTCCGGTCTCCC", "DNA 2": "TGGTGGCTACGACGGGATT"}, "B24": {"name": "CUUCCCU (DNA:RNA)", "RNA": "B10 RNA with G26U, C27U, G28C, U30C, A31U", "DNA 1": "CAATCTGAATTCCGGTCTCCC", "DNA 2": "TGGTGGCTACGACGGGATT"}, "B25": {"name": "ACAUAAC (DNA:RNA)", "RNA": "B1 RNA with U26C, G30A, G31C", "DNA 1": "CAATCTGAATTCCGGTCTCCC", "DNA 2": "TGGTGGCTACGACGGGATT"}, "B26": {"name": "CCUGUCA (DNA:RNA)", "RNA": "B10 RNA with G26C, C27U, C29U, U30C", "DNA 1": "CAATCTGAATTCCGGTCTCCC", "DNA 2": "TGGTGGCTACGACGGGATT"}, "B27": {"name": "CAUUGCA (DNA:RNA)", "RNA": "B10 RNA with G26A, C27U, G28U, C29G, U30C", "DNA 1": "CAATCTGAATTCCGGTCTCCC", "DNA 2": "TGGTGGCTACGACGGGATT"}, "B28": {"name": "CGUAGGC (DNA:RNA)", "RNA": "B10 RNA with C27U, G28A, C29G, U30G, A31C", "DNA 1": "CAATCTGAATTCCGGTCTCCC", "DNA 2": "TGGTGGCTACGACGGGATT"}, "B29": {"name": "UUGUGUC (DNA:RNA)", "RNA": "B1 RNA with A25U, A27G, A29G, G30U, G31C", "DNA 1": "CAATCTGAATTCCGGTCTCCC", "DNA 2": "TGGTGGCTACGACGGGATT"}, "B30": {"name": "CACUGUA (DNA:RNA)", "RNA": "B10 RNA with G26A, G28U, C29G", "DNA 1": "CAATCTGAATTCCGGTCTCCC", "DNA 2": "TGGTGGCTACGACGGGATT"}, "B31": {"name": "CUACUCC (DNA:RNA)", "RNA": "B1 RNA with A25C, U28C, A29U, G30C, G31C", "DNA 1": "CAATCTGAATTCCGGTCTCCC", "DNA 2": "TGGTGGCTACGACGGGATT"}},
  "note": "Changes are numbered by the printed parent chain; changes in the protein carry UniProt numbers. The list shows a part of the results.",
  "data": [
    {"target": "T1, RBFOX1 RRM (Homo sapiens, UniProt Q9NWB1 109-208)", "T1 sequence": "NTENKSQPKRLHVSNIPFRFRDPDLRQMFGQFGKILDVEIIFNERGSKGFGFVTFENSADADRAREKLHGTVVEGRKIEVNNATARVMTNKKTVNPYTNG", "experiment": "EMSA; HiTS-Eq, 1 nM pool, 10 min; buffer printed only for the single-RNA assays: 10 mM Tris pH 7.5, 150 mM NaCl, 3.4 mM EDTA, 0.001% NP-40, 30 C", "settings": "tags: His6 N-terminal (pET28a); label: 5' 32P", "in_short": "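Relative association constants, normalised to the cognate motif, were derived by comparing read counts of each RNA species with those of the control reaction. The RNA sequenced was the free fraction, separated by 8% native PAGE after a 10 min equilibration in 50 µL of 1 nM 5′-radiolabelled RNA (7 randomized nucleotides) with increasing concentrations of purified wild-type or mutant RbFox RRM.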", "values": [
      {"binder": "B1", "binding signal": "0.00541 KA relative to UGCAUGU"},
      {"binder": "B2", "binding signal": "0.0398 KA relative to UGCAUGU"},
      {"binder": "B3", "binding signal": "0.00231 KA relative to UGCAUGU"},
      {"binder": "B4", "binding signal": "0.00858 KA relative to UGCAUGU"},
      {"binder": "B5", "binding signal": "0.00504 KA relative to UGCAUGU"},
      {"binder": "B6", "binding signal": "0.00839 KA relative to UGCAUGU"},
      {"binder": "B7", "binding signal": "0.00925 KA relative to UGCAUGU"},
      {"binder": "B8", "binding signal": "0.0133 KA relative to UGCAUGU"},
      {"binder": "B9", "binding signal": "0.0237 KA relative to UGCAUGU"},
      {"binder": "B10", "binding signal": "0.00984 KA relative to UGCAUGU"},
      {"binder": "B11", "binding signal": "0.00671 KA relative to UGCAUGU"},
      {"binder": "B12", "binding signal": "0.000772 KA relative to UGCAUGU"},
      {"binder": "B13", "binding signal": "0.00875 KA relative to UGCAUGU"},
      {"binder": "B14", "binding signal": "0.0206 KA relative to UGCAUGU"},
      {"binder": "B15", "binding signal": "0.00679 KA relative to UGCAUGU"},
      {"binder": "B16", "binding signal": "0.0359 KA relative to UGCAUGU"},
      {"binder": "B17", "binding signal": "0.00881 KA relative to UGCAUGU"},
      {"binder": "B18", "binding signal": "0.015 KA relative to UGCAUGU"},
      {"binder": "B19", "binding signal": "0.00105 KA relative to UGCAUGU"},
      {"binder": "B20", "binding signal": "0.00408 KA relative to UGCAUGU"},
      {"binder": "B21", "binding signal": "0.0101 KA relative to UGCAUGU"},
      {"binder": "B22", "binding signal": "0.00799 KA relative to UGCAUGU"},
      {"binder": "B23", "binding signal": "0.0103 KA relative to UGCAUGU"},
      {"binder": "B24", "binding signal": "0.00488 KA relative to UGCAUGU"},
      {"binder": "B25", "binding signal": "0.00142 KA relative to UGCAUGU"},
      {"binder": "B26", "binding signal": "0.00585 KA relative to UGCAUGU"},
      {"binder": "B27", "binding signal": "0.00927 KA relative to UGCAUGU"},
      {"binder": "B28", "binding signal": "0.0114 KA relative to UGCAUGU"},
      {"binder": "B29", "binding signal": "0.0254 KA relative to UGCAUGU"},
      {"binder": "B30", "binding signal": "0.00253 KA relative to UGCAUGU"},
      {"binder": "B31", "binding signal": "0.00512 KA relative to UGCAUGU"}
    ]}
  ]
}
